Our source for the binding values is publication doi:10.1101/2024.08.28.609967 (bioRxiv, 2024).

By UniProt entry, the sequences of proteins in these tests, tags left out. Where a name states a change or a piece, a line headed by the entry shows the natural chain unless it says otherwise. Chains listed by the source or under a name are the forms on record and can include a tag or linker. Residues count along the entry.
UniProt O60238, residues 1-182: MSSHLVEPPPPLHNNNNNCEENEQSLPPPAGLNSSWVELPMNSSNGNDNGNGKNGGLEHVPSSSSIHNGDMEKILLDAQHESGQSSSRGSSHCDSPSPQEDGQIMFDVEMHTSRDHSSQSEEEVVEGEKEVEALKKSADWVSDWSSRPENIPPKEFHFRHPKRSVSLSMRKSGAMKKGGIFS
UniProt Q9BXK5, residues 1-465: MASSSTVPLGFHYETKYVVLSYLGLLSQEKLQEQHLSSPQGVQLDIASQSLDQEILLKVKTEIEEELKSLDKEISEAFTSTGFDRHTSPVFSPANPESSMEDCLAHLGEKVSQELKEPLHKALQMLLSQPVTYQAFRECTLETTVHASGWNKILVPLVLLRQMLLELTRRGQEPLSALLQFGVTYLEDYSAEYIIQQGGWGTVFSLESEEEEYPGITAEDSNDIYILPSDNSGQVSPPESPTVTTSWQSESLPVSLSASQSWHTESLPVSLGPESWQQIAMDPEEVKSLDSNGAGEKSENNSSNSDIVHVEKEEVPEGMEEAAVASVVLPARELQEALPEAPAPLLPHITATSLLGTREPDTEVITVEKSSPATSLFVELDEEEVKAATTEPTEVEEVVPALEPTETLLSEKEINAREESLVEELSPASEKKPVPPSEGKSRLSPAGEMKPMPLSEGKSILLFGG
UniProt Q8TDY2: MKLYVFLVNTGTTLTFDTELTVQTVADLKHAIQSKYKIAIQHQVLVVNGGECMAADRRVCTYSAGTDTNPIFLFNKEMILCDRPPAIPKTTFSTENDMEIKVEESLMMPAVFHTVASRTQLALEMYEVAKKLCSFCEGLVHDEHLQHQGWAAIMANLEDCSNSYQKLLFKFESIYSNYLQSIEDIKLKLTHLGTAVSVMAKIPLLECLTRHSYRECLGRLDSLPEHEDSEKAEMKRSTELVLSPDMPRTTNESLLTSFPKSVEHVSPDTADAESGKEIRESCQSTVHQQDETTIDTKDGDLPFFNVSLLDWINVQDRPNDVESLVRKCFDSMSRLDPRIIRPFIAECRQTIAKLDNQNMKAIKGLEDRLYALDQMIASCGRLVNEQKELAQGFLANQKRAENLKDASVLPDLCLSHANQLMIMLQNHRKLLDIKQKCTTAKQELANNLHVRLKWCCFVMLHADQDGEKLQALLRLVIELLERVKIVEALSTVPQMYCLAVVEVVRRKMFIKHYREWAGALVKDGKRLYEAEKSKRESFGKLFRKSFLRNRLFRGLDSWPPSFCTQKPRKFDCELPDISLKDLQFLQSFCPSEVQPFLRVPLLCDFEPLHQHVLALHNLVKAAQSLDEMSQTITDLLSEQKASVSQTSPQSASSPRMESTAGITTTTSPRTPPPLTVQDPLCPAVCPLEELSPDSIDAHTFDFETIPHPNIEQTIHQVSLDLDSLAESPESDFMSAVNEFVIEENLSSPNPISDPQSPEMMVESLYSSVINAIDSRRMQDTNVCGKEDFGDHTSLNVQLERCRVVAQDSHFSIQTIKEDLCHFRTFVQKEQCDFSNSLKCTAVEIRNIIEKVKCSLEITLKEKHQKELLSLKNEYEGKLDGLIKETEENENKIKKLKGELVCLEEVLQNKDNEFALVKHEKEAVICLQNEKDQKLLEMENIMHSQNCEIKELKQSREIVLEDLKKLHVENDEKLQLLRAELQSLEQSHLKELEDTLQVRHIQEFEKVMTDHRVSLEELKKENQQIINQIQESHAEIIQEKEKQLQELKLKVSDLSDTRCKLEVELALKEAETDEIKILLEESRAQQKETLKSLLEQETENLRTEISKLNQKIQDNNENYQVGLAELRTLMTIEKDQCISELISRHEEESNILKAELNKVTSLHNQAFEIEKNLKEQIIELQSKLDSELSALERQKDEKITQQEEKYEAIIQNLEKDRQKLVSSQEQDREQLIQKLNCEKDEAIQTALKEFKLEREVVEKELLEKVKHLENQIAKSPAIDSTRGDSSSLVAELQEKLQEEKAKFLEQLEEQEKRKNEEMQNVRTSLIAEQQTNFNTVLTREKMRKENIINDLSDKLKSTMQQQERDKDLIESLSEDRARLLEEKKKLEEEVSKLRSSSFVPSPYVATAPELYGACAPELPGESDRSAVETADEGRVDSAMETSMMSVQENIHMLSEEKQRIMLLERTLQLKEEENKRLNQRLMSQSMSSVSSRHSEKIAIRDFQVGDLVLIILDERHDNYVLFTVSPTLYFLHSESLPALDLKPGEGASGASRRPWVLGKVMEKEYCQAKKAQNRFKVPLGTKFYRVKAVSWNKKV
GFP-FIP200 C-terminal region (CTR) (residues 1429–1591) (Q8TDY2-2, form named): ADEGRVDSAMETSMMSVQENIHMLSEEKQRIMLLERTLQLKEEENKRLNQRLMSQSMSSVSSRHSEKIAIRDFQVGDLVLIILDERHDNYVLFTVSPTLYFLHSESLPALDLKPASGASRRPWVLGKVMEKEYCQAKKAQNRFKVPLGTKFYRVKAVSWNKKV
UniProt Q6ZNE5: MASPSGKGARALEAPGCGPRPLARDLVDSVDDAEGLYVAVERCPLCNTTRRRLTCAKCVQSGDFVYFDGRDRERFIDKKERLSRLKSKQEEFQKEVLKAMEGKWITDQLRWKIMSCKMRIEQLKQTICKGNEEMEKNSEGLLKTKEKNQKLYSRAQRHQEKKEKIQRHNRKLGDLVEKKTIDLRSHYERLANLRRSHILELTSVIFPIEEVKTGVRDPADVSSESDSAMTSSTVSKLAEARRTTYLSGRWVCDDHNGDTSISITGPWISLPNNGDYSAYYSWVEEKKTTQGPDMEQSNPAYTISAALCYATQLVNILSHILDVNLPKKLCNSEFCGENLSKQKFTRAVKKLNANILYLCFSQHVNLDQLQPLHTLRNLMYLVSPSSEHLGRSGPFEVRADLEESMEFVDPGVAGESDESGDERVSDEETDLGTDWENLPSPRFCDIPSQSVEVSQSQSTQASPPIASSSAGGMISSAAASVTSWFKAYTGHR

No constants are given. Whether binding was seen depends on the method and setting. For part of these data: Binding seen in cells or lysates may run through a third protein. Some results given as binding are weak or reduced against the parent protein; the word gives no strength. For part of these data: Tags and fused reporters may be left off the sequences shown.

In test [1] the target is NIX(1–182aa)-GST (human) (UniProt O60238). The test is described as follows: microscopy-based bead assay; glutathione beads coated with GST-tagged cargo receptors (5 uM), full-length FIP200-GFP as prey, co-incubated 4 h; 25 mM Tris-HCl pH 7.4, 150 mM NaCl, 1 mM DTT; both purified.
The target is the same in test [2]. The test is described as follows: microscopy-based bead assay; as a3 (full-length FIP200-GFP prey, 4 h) with Lambda Protein Phosphatase and 1 mM MnCl2; both purified.
For test [3], the target named is T1, BCL2L13(1–465aa)-GST (human, UniProt Q9BXK5 1-465).
T1 construct: BCL2L13, cytosol-exposed domain, residues 1-465; also called BCL2L13-GST; source: E. coli Rosetta pLysS, purified (glutathione beads, SEC); not shown: GST, C-terminal, kept
Described as above.

Test [4] deals with T2, FUNDC1(1–50aa)-GST (human) (UniProt Q8IVP5).
T2 sequence: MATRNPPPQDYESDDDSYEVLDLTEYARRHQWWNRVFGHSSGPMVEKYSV
The test is described as above.

In test [5] the target is NIX(1–182aa)-GST (human) (UniProt O60238). The test is described as follows: microscopy-based bead assay; as a3 (full-length FIP200-GFP prey, 4 h) with kinases TBK1, MBP-ULK1, CK2 or Src (Y530F) and 10 mM MgCl2, 100 uM ATP; both purified.
Test [6] concerns the target T1, BCL2L13(1–465aa)-GST. The description is as above.
The target in test [7] is T2, FUNDC1(1–50aa)-GST (human). Described as above.
Test [8] deals with NIX(1–182aa)-GST (human) (UniProt O60238). The test is described as follows: microscopy-based bead assay; as a2 (GFP-FIP200 CTR prey) with Lambda Protein Phosphatase and 1 mM MnCl2; both purified.
For test [9] the target is unchanged. The test is described as follows: microscopy-based bead assay; as a2 (GFP-FIP200 CTR prey) with kinases TBK1, MBP-ULK1, CK2 or Src (Y530F) and 10 mM MgCl2, 100 uM ATP; both purified.
Test [10] addresses T3, FUNDC1 Y18A/L21A (ΔLIR)-GST (human) (UniProt Q8IVP5).
T3 sequence: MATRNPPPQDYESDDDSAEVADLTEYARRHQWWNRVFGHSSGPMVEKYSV
The test is described as follows: microscopy-based bead assay; glutathione beads coated with GST-tagged cargo receptors (5 uM), GFP-FIP200 CTR (1429-1591) as prey, 30 min; 25 mM Tris-HCl pH 7.4, 150 mM NaCl, 1 mM DTT; confocal imaging; both purified.

In test [11] the target is NIX(1–182aa)-GST (human) (UniProt O60238). The description is as above.
For test [12] the target is unchanged. The test is described as follows: in vitro binding assay; purified TBK1, PI3KC3-C1 complex or ATG9A-vesicles tested with BNIP3/NIX (Fig. S3); format not told in the text shown; both purified.
The target is the same in test [13]. The test is described as follows: pull-down; beads coated with GST, NIX-GST or BNIP3-GST, incubated overnight with HeLa cell lysate; SDS-PAGE and western blot for WIPI proteins; only the target purified.
The target is the same in test [14]. The test is described as follows: microscopy-based bead assay; glutathione beads coated with GST-tagged cargo receptors (5 uM), mCherry-tagged WIPI proteins as prey, co-incubated 2 h; 25 mM Tris-HCl pH 7.4, 150 mM NaCl, 1 mM DTT; confocal imaging; both purified.

Regarding “FIP200-GFP (full-length FIP200) (from UniProt Q8TDY2 1-1594)”, the binding result with NIX(1–182aa)-GST (human) [1] is reported as “no binding”; with NIX(1–182aa)-GST (human) [2] it was “no binding”; with BCL2L13(1–465aa)-GST [3], “binds”; in test [4], “binds”; with NIX(1–182aa)-GST (human) [5], “no binding”; with BCL2L13(1–465aa)-GST [6] it was “binds”. The binding result in test [7] is given as “binds”.

Regarding “GFP-FIP200 C-terminal region (CTR) (residues 1429–1591) (from UniProt Q8TDY2-2 1429-1591) (domain or fragment)”, the binding entry (with NIX(1–182aa)-GST (human) [8]; with NIX(1–182aa)-GST (human) [9]; in test [10]; in the test with NIX(1–182aa)-GST (human) [11]) was “no binding” each time.

On to “mCherry-tagged PI3KC3-C1 complex (from UniProt Q6ZNE5 1-492; Q8NEB9 1-887; Q99570 1-1358; Q14457 1-450)”, for which the binding entry in the test with NIX(1–182aa)-GST (human) [12] is on record as “no binding”.

B1: WIPI2 (endogenous, HeLa) (protein, UniProt Q9Y4P8 1-454)
chain: MNLASQSGEAGAGQLLFANFNQDNTEVKGASRAAGLGRRAVVWSLAVGSKSGYKFFSLSSVDKLEQIYECTDTEDVCIVERLFSSSLVAIVSLKAPRKLKVCHFKKGTEICNYSYSNTILAVKLNRQRLIVCLEESLYIHNIRDMKVLHTIRETPPNPAGLCALSINNDNCYLAYPGSATIGEVQVFDTINLRAANMIPAHDSPLAALAFDASGTKLATASEKGTVIRVFSIPEGQKLFEFRRGVKRCVSICSLAFSMDGMFLSASSNTETVHIFKLETVKEKPPEEPTTWTGYFGKVLMASTSYLPSQVTEMFNQGRAFATVRLPFCGHKNICSLATIQKIPRLLVGAADGYLYMYNLDPQEGGECALMKQHRLDGSLETTNEILDSASHDCPLVTQTYGAAAGKGTYVPSSPTRLAYTDDLGAVGGACLEDEASALRLDEDSEHPPMILRTD
For B1, the binding entry with NIX(1–182aa)-GST (human) [13] is on record as “binds”.

B2: TBK1 (enzyme, UniProt Q9UHD2 1-729)
chain: MQSTSNHLWLLSDILGQGATANVFRGRHKKTGDLFAIKVFNNISFLRPVDVQMREFEVLKKLNHKNIVKLFAIEEETTTRHKVLIMEFCPCGSLYTVLEEPSNAYGLPESEFLIVLRDVVGGMNHLRENGIVHRDIKPGNIMRVIGEDGQSVYKLTDFGAARELEDDEQFVSLYGTEEYLHPDMYERAVLRKDHQKKYGATVDLWSIGVTFYHAATGSLPFRPFEGPRRNKEVMYKIITGKPSGAISGVQKAENGPIDWSGDMPVSCSLSRGLQVLLTPVLANILEADQEKCWGFDQFFAETSDILHRMVIHVFSLQQMTAHKIYIHSYNTATIFHELVYKQTKIISSNQELIYEGRRLVLEPGRLAQHFPKTTEENPIFVVSREPLNTIGLIYEKISLPKVHPRYDLDGDASMAKAITGVVCYACRIASTLLLYQELMRKGIRWLIELIKDDYNETVHKKTEVVITLDFCIRNIEKTVKVYEKLMKINLEAAELGEISDIHTKLLRLSSSQGTIETSLQDIDSRLSPGGSLADAWAHQEGTHPKDRNVEKLQVLLNCMTEIYYQFKKDKAERRLAYNEEQIHKFDKQKLYYHATKAMTHFTDECVKKYEAFLNKSEEWIRKMLHLRKQLLSLTNQCFDIEEEVSKYQEYTNELQETLPQKMFTASSGIKHTMTPIYPSSNTLVEMTLGMKKLKEEMEGVVKELAENNHILERFGSLTMDGGLRNVDCL
As to B2, in the test with NIX(1–182aa)-GST (human) [12], the binding entry is given as “no binding”.

B3: mCherry-tagged WIPI1 (protein, UniProt Q5MNZ9 1-446)
chain: MEAEAADAPPGGVESALSCFSFNQDCTSLATGTKAGYKLFSLSSVEQLDQVHGSNEIPDVYIVERLFSSSLVVVVSHTKPRQMNVYHFKKGTEICNYSYSSNILSIRLNRQRLLVCLEESIYIHNIKDMKLLKTLLDIPANPTGLCALSINHSNSYLAYPGSLTSGEIVLYDGNSLKTVCTIAAHEGTLAAITFNASGSKLASASEKGTVIRVFSVPDGQKLYEFRRGMKRYVTISSLVFSMDSQFLCASSNTETVHIFKLEQVTNSRPEEPSTWSGYMGKMFMAATNYLPTQVSDMMHQDRAFATARLNFSGQRNICTLSTIQKLPRLLVASSSGHLYMYNLDPQDGGECVLIKTHSLLGSGTTEENKENDLRPSLPQSYAATVARPSASSASTVPGYSEDGGALRGEVIPEHEFATGPVCLDDENEFPPIILCRGNQKGKTKQS
B3: in the test with NIX(1–182aa)-GST (human) [14], the binding result was “binds”.
